Laboratory results reported in the supplement of paper PMC3334620.
The full ranking holds about 33,000 sequences; the median of “E-score (-0.5 to 0.5)” is about -0.012, and the highest 2% start at about 0.29. The list shows a part of the results.

Biological target: T1, Ybr033w (UniProt P38073)
T1 sequence: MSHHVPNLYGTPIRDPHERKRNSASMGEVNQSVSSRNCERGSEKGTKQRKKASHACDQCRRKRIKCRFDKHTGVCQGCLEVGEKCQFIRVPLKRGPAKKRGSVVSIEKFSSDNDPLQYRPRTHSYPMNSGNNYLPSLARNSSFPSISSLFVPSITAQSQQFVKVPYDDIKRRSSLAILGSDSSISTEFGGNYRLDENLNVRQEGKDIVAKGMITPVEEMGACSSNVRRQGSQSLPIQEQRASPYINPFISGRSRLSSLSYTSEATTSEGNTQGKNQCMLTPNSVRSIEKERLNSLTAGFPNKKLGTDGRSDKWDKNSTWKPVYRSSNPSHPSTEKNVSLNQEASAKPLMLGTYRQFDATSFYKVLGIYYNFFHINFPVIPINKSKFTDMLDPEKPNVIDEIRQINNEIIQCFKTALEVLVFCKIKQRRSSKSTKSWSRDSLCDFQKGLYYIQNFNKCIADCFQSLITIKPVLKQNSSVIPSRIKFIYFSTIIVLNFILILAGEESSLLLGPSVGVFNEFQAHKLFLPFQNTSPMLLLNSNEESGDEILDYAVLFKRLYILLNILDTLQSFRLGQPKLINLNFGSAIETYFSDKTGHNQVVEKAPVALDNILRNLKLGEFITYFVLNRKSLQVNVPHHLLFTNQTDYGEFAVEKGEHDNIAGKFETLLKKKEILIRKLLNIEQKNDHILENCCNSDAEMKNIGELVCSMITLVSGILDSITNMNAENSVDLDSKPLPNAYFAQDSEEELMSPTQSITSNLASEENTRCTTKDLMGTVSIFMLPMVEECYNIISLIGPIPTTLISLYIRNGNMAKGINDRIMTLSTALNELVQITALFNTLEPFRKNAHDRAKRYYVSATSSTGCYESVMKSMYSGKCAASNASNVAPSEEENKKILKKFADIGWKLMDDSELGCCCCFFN
Test: PBM E-score (8-mer binding enrichment) (E-score (-0.5 to 0.5)); higher = stronger / more preferred TF binding; most listed sequences are background and not binding sites
Details: protein concentration: 200 nM; construct: GST-full length
Outline: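 GST-tagged yeast TFs (full-length or DNA-binding domain) were made by PURExpress in vitro transcription/translation and applied at about 100-200 nM to universal all-10-mer Agilent arrays. The arrays were made double-stranded by primer extension, on fresh or once-stripped slides. Bound protein was detected with fluorescent anti-GST, and scans were normalised with masliner. Each ungapped eight-base word, pooled with its reverse complement, received an E-score (modified Wilcoxon-Mann-Whitney statistic) from the Universal PBM Analysis Suite.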

Sequence	PBM E-score
AATCCCGC	0.106
CCAATCTA	0.0466
CTATCTAC	0.0222
GCCTGACA	-0.312
TGGAGAAA	0.133
TCTGTGCA	0.0377
TACCAACA	0.22
ACCGGAGC	-0.174
AAGCAGGT	0.0163
CGGCATCC	-0.216
CAACCTCG	0.0191
CGAATACG	-0.0836
CGTATACC	-0.103
TAGAGGGA	-0.179
CTGTAAAC	0.187
ACGCCACA	0.0472
CTTCCCTC	-0.163
ACCTCCCT	-0.113
ACCACCTC	-0.00951
TGGCCAAA	0.00462
CCCTACAA	-0.0961
GGAGGGTA	-0.119
CGCCAGTA	-0.0432
GATTCGCC	-0.0869
CAGTTTCC	0.094

Sequence	PBM E-score
AAGGTCCG	-0.193
GATCGTAC	-0.25
ACATCTCT	-0.0224
CTAGCTTC	0.0557
AACATTTG	-0.0656
GGCAAAAA	0.133
AAAACGCG	0.0943
AGTCGTCA	-0.066
AATTTTGG	0.104
AAATAACC	0.094
TCGTATAA	0.236
CCAAAGAG	-0.0366
GAGGTGAA	0.0754
ACGAGTAC	0.128
CCCACATC	-0.228
CAACCGTG	-0.0804
AAGGAATA	0.219
CGGCGGGA	-0.35
CACGCCCA	-0.158
ATACGCCA	0.0161
AGAGGAGG	-0.26
GCATGTCA	-0.125
GCTTCAAC	-0.153
CGTCGAAA	0.154
GGCCGAAC	-0.238

Sequence	PBM E-score
CCCTCCGG	-0.202
ACTAAGAC	0.026
GTTCGCGA	0.0447
CTCGTCAA	-0.0138
CTGTCCCA	-0.3
GAGCCGCC	-0.236
AGTTATAC	0.088
ACCGAGAC	-0.219
GGTCAACC	-0.111
CCTCAGCC	-0.2
GAATCGTA	0.0349
AGCTTTAA	0.106
GAGAGCAA	-0.0432
GCTAAACC	-0.162
AGATTACA	0.0886
ATTGGACC	-0.129
ACGTGCGA	-0.0447
CTCACCAA	0.179
ATGGAATC	0.198
GCTGGCAC	-0.243
CAGCACCC	-0.258
ATCAAGAG	0.212
ATTTGTCC	0.26
AAGGACTG	-0.16
GCCCTAAC	-0.0245

Sequence	PBM E-score
GTTCCCGA	-0.0684
TAGCTATA	0.0277
CTCATGGC	-0.197
AACCGCAA	0.127
ACACAGTC	-0.0764
CCGTCTAG	-0.124
CCAAAGCC	-0.0563
GTCTCTAA	-0.0774
ACTACATA	0.233
CTAATCAC	0.134
CTTTCTCC	-0.103
CTGATGCC	-0.0338
CATTGATC	0.236
ATGTATAC	0.229
GACGAGCC	-0.0703
CGGGCCTA	-0.216
GAACTTTA	-0.0884
CGGCCACA	-0.119
ACGACCCA	-0.188
GCATGCTA	-0.0885
GTATACGA	0.0267
AATGAACA	0.214
CATCCGGG	-0.0657
TTAAACAA	0.226
CAAAAGGC	0.0553

Sequence	PBM E-score
GGCACGCC	-0.414
CATTTTCC	0.223
ACCACAGG	-0.164
ATCCCGCC	-0.206
ATCTCACG	-0.168
ATCCTTAG	-0.0191
AGATAGAT	0.0433
GGCTATAA	0.00013
GCAACAGA	0.101
AACCTCAT	0.121
ATGAATGG	0.0346
AGGCTCAA	-0.158
ACGCGTAA	-0.0148
CGCAATTC	0.0805
CAAAGCGC	-0.067
CGGACCAG	-0.0706
ACACGGCG	0.0146
ACCCGGAT	-0.0735
CACCACTA	0.0777
GTAGATAC	0.116
CAGGACCC	-0.213
CGCAGTGA	-0.033
ATTGTAAC	0.216
ACATGACG	-0.0838
CCACGAAC	0.0234

Sequence	PBM E-score
GCAGGTCC	-0.00694
CCAGGACG	-0.233
CTTAGTTC	0.00673
ACCGTTCT	-0.0931
GAATCTAC	0.131
GAGTGCAA	0.0873
AAGACGGC	-0.176
TCAAAGGA	-0.0278
ATGTTATG	0.234
ACCACAGT	0.0969
CGCAATGC	-0.247
AAGCTGAG	-0.118
CCAGACTC	-0.132
TATAGTCA	0.214
GTATGGTA	0.145
CTAAGAGA	-0.0123
CCCCTAGG	-0.286
CGAGAACC	-0.00458
GACAGTAC	-0.0498
GAGAGCAC	-0.136
AGATCGCG	-0.0557
GCAGAAAC	0.172
AAGTTACG	0.168
ACTAAAAG	0.0382
GACACGCA	0.0219

Sequence	PBM E-score
GCTAGATA	-0.00395
AGGCAAGC	-0.172
ATATACTG	0.255
ATTTTTTC	0.316
CATGATAC	0.125
CTGGCTGC	-0.104
CGTCCCTA	-0.0874
CGAGATTC	0.0885
CCTGGTCG	-0.159
CCAAGTAG	-0.102
GAGACCCC	-0.134
ATTTCCTG	0.3
GGACAGCA	-0.123
CTTTTGCC	0.14
CGAATGAA	0.0893
ACTGCTAG	-0.0711
AGGGGGGG	-0.427
AGACTTTG	-0.0453
CCAAGGAA	0.0112
AATTTTGA	0.216
GATCAGTA	0.107
AAAGTGTC	0.0495
ACTATGGA	-0.172
GATAAAAA	0.278
CCCGTCGA	-0.192

Sequence	PBM E-score
AGAGCTTG	-0.0892
AGCCCGTA	-0.224
ACGAAGAA	0.2
ATTCACAG	0.0908
ATGAGAGG	-0.258
GCCACTCC	-0.107
AACGTTTA	0.0786
GTACGATA	0.0341
ACGCCGGA	-0.173
ACGGAATA	0.351
AAACACCC	0.0312
CCCGTCGC	-0.229
CAAAATTA	0.182
CTGCTTCA	-0.221
CCCCAAGG	-0.267
AAACATGT	0.254
CGTCATAA	-0.0277
CCAACTGA	0.00563
GTTGCACA	-0.136
AAATCCAC	0.135
GATTACAA	0.0954
GGGACAGA	-0.264
ATTGGTCG	-0.0127
TCAAGCGA	-0.0198
CGCGACGC	-0.16

Sequence	PBM E-score
CGTACTCA	0.0846
CCGGCGCA	-0.139
CAAGACAC	0.0636
GGCTTGAC	-0.039
ACAATGAA	0.159
AGCCGGTA	-0.0534
CGCTGTGA	-0.156
CCCCCCAG	-0.438
AGAGCTCA	-0.134
ACCTCATA	0.15
ATGTGTAG	-0.034
GCGATCGC	-0.096
GGAGGTAA	0.0225
CTCGTGTA	-0.0837
CGGTCCTC	-0.166
CAGGTGAC	-0.264
GGTCATGA	-0.167
CGAAACTA	0.115
CCTCGCGC	-0.0829
